# Laboratory results reported in paper PMC4336329 (PLoS ONE, 2015).
# Out of some 310,000 compounds screened, about 14,000 (4.5%) showed an effect of 50% or more. The effect is printed as a negative number. Some of the results follow.
# Molecular target: human ether-à-go-go-related gene (hERG) potassium channel (human, UniProt Q12809)
# Experiment: primary screen, population patch clamp on CHO cells stably expressing hERG
# 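Also: peak tail current of the secondary pulse compared with the same well before compound.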
# Chain of human ether-à-go-go-related gene (hERG) potassium channel (Q12809 whole entry, looked up): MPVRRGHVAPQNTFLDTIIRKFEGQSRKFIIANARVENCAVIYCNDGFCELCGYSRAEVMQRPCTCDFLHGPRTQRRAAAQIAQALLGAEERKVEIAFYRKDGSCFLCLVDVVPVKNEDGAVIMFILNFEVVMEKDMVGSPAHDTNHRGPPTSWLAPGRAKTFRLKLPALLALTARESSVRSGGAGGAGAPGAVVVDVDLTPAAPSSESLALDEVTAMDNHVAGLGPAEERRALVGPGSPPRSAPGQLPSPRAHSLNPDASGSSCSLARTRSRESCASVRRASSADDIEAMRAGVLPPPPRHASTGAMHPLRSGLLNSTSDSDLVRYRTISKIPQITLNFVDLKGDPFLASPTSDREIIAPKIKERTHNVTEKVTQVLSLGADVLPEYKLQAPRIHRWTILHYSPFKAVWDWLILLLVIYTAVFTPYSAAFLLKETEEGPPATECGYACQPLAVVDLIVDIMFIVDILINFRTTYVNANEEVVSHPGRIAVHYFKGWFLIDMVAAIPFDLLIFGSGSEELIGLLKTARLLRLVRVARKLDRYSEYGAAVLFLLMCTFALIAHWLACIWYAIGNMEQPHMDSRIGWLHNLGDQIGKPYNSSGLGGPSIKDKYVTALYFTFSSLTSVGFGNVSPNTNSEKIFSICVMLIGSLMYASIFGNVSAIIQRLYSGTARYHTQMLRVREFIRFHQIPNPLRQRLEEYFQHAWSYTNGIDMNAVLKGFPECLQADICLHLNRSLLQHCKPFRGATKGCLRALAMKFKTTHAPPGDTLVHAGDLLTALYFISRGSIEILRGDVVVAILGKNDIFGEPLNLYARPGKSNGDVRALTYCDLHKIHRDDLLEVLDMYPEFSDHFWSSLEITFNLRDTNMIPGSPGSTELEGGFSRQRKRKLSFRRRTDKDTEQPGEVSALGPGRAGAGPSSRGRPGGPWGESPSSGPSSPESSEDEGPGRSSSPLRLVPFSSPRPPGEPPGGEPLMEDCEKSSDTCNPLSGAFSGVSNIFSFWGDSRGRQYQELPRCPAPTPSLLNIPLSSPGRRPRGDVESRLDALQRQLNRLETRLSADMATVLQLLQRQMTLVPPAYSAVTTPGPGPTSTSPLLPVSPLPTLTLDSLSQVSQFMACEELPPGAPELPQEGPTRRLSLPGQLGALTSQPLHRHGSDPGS
row,Structure (SMILES),"hERG current change (%, negative = inhibition) at 10uM [%]"
1,O=C(NC1CC1)C1=C[C@@H](c2ccc(Br)cc2)C[C@@H](OCCCCO)O1,-15.5
2,Fc1ccc(NC(=S)N/N=C/c2cccc(Br)c2)c(F)c1,3.9
3,CS(=O)(=O)c1ccc(-c2nnn(CC(=O)Nc3ccc4c(c3)OCCO4)n2)cc1,11
4,Cc1cc(NS(=O)(=O)c2ccc(NC(=S)NC(=O)c3ccc(Br)cc3)cc2)no1,-41
5,Cc1nn(Cc2nnc(SCC(=O)Nc3cccc(C(F)(F)F)c3)n2C)c(C)c1[N+](=O)[O-],-57.7
6,COC(=O)C1=C(C(=O)OC)[C@@H]2N(Cc3ccccc3)c3ccccc3[C@@]23C[C@@H](C(=O)OC)N(C(=O)C2CCC2)C3=N1,-3.95
7,COc1cc(C(c2nnnn2C(C)(C)C)N2CCN(c3nc4ccccc4s3)CC2)ccc1O (stereo not drawn),-28.1
8,Cc1ccc(/C=N/n2cnc3sc(C)c(C)c3c2=O)o1,6.08
9,Cc1ccc(S(=O)(=O)N2CCOCC2)cc1C(=O)Nc1ccccc1F,3.51
10,CCCCNCc1cc(Br)c(OCC(=O)N2CCOCC2)c(OC)c1.Cl,-10.1
11,CCCc1nnc(NC(=O)CSc2ncn[nH]2)s1,9.49
12,O=c1[nH]c(O)c(/C=C2\C=Nc3ccc(Br)cc32)[nH]1,15.1
13,O=S(=O)(Nc1ccc(Cc2ccncc2)cc1)c1cccs1,-41
14,O=c1c2ccccc2nc(-c2ccco2)n1/N=C/c1ccco1,13.1
15,Cc1ccc(-c2nn3c(C)nnc3s2)cc1NC(=O)c1ccc(OC(C)C)cc1,-40.7
16,CCOc1ccccc1CNCCNCC(C)O.Cl (stereo not drawn),16.3
17,C=CCn1c(-c2ccc(Cl)cc2)cnc1SC(C)C(=O)NC(N)=O (stereo not drawn),-12.1
18,CCOC(=O)CSc1nnc(CNC(=O)c2ccc(OC)cc2OC)n1-c1ccc(OC)cc1,-50.1
19,CC(=O)N/C(=C\c1ccccc1)C(=O)OCc1ccccc1,11.3
20,O=C1C(c2ccccc2)SC(=Nc2ccccc2)N1S(=O)(=O)c1ccccc1 (stereo not drawn),6.8
21,O=C(NCC1CCCCC1)c1cc([N+](=O)[O-])ccc1Cl,12.8
22,Cc1nc(N)sc1-c1csc(Nc2cccc(C(=O)O)c2)n1,7.92

row,Structure (SMILES),"hERG current change (%, negative = inhibition) at 10uM [%]"
1,O=C(COC(=O)C1CCN(C(=O)c2ccc(Cl)cc2)CC1)c1ccco1,-26.2
2,Cc1cc(OCc2cc(C(=O)N(C)C(C)c3ccccn3)no2)cc(C)c1Cl (stereo not drawn),4.06
3,CC(=O)Nc1ccc(NC(=O)C(C)Sc2nnc(-c3cccs3)o2)cc1 (stereo not drawn),23.6
4,O=C(Cc1ccc(Cl)cc1)NCC(=O)N1CCCC1,2.15
5,CCOC(=O)/C(C#N)=C\c1c(OCC)n(CC)c2ccccc12,0.319
6,CCc1ccc(NC(=S)NC(=O)c2c(-c3ccccc3Cl)noc2C)cc1,8.26
7,c1ccc(-c2ccc(C3=Nn4c(nnc4-c4cccs4)SC3)cc2)cc1,-5.67
8,O=[N+]([O-])c1ccc(N=Nc2ncc[nH]2)cc1,9.64
9,O=C(CSc1ccccn1)Nc1nc2c(ccc3ccccc32)s1,8.38
10,CCOC(=O)NC(=S)Nc1c(C)n(C)n(-c2ccccc2)c1=O,1.46
11,Cc1cc(NC(=O)c2cccc(S(=O)(=O)N3CCC(C)CC3)c2)no1,0.978
12,O=C(NCCc1cccc(Cl)c1)C1CCC(=O)N(Cc2ccc(Cl)cc2)C1 (stereo not drawn),-52.3
13,COc1ccc(OC)c(C2C=C(c3ccc(C)c(C)c3)Nc3nnnn32)c1 (stereo not drawn),-2.07
14,Cc1ccc(Cl)cc1NC(=O)Nc1cccs1,23.3
15,CCOc1ccccc1CNn1nnnc1N,30.5
16,COC(=O)c1cc(COC(=O)c2nc3nc(C)cc(C)n3n2)oc1C,8.71
17,Cc1ccccc1OCc1csc(N)n1,2.81
18,Cc1ccc(NC(=O)c2ccc(NCCN)c([N+](=O)[O-])c2)cc1Cl,-14.3
19,COc1ccc(/C=C(\C#N)C(=O)OCC(=O)Nc2ccc(-c3nc4ccc(C)cc4s3)cc2)cc1,2.04
20,Cc1ccccc1C(=O)NNC(=O)CSc1nc(-c2ccccc2)cc(=O)[nH]1,7.8
21,CCCN(CCC)c1nc(Cl)nc(NCCN2CCOCC2)n1,-13.2
22,O=C(O)C1CCC(N2C(=O)c3cccc([N+](=O)[O-])c3C2=O)CC1 (stereo not drawn),19

row,Structure (SMILES),"hERG current change (%, negative = inhibition) at 10uM [%]"
1,Cn1c(COc2ccc(Cl)cc2Cl)nnc1SCC(=O)NCC1CCCO1 (stereo not drawn),-20.9
2,CC(=O)Nc1nc(C)c(Oc2ccc(Cl)cc2)c(=O)[nH]1,17.2
3,CC(C)(C)C1CCC(=NNc2ccc(S(N)(=O)=O)cc2[N+](=O)[O-])CC1 (stereo not drawn),7.42
4,Cc1nn(Cc2ccccc2)c(C)c1C(=O)OCC(=O)Nc1ccccc1SCC#N,-26.9
5,CCC(c1nc2ccccc2c(=O)n1-c1cccnc1)N1C(=O)c2ccccc2C1=O (stereo not drawn),-4.61
6,O=C(Nc1cccc([N+](=O)[O-])c1)NC1CCS(=O)(=O)C1 (stereo not drawn),-11.6
7,CCC(C)C(=O)Nc1ccc(S(=O)(=O)Nc2nccs2)cc1 (stereo not drawn),-8.77
8,CC(C)(C)n1ncc2c(=O)n(CC(=O)Nc3ccccc3)cnc21,27.2
9,Cc1ccc(S(=O)(=O)CNC(=O)c2ccccc2)cc1,7.71
10,COc1cc(/C=C2\SC(=O)N(CCNC(=O)c3sc4cc(F)ccc4c3Cl)C2=O)cc(OC)c1OC,20.1
11,O=C(COc1cccnc1[N+](=O)[O-])Nc1ccc2c(c1)CCC2,-1.54
12,O=C(COc1ccccc1Cl)NCCNC(=O)c1ccco1,1.86
13,COc1ccccc1Nc1[nH+]c(C)cs1.[Br-],2.66
14,Cc1ccc(S(=O)(=O)N(Cc2cc3ccc(C)cc3[nH]c2=O)c2ccccc2)cc1,1.16
15,O=C(Nc1nc2ccc(Cl)cc2s1)c1ccco1,-1.54
16,CCOc1ccc(N(C)Cc2cc(=O)oc3ccc(OCC)cc23)cc1,-1.17
17,Cc1ccc(C)c(NC(=O)CCC(=O)NN=C2CCCC2)c1,15.6
18,COc1ccc(C(=O)N2CCCC(CNC(=O)c3ccccc3Cl)C2)o1 (stereo not drawn),17.9
19,COc1ccccc1NS(=O)(=O)c1cccc(-n2c(O)c(C=Nc3ccccc3C(=O)O)c3ccccc3c2=O)c1,2.75
20,COc1ccc(-c2cc(C(=O)Nc3cc(C)on3)no2)cc1OC,20.7
21,CC1CCCC(C)N1/N=C/c1ccc(N(C)C)cc1 (stereo not drawn),-7.66
22,Cc1ccc(C(=O)Nc2ncn[nH]2)cc1,8.36

row,Structure (SMILES),"hERG current change (%, negative = inhibition) at 10uM [%]"
1,N#CC(C(N)=O)=C1CCC2(CC1)OCCCCO2,-2.98
2,Cc1nn(Cc2ccc(Cl)cc2)c(Cl)c1/C=N/NC(=O)CNc1ccccc1F,1.56
3,CC(=O)NC1CCCc2c1cnn2-c1ccc(C(C)(C)C)cc1 (stereo not drawn),-29.1
4,COc1cc(C)ccc1OCCOCCN(C)Cc1ccccc1.O=C(O)C(=O)O,-32.8
5,COc1ccc(CNCc2cccc(Cl)c2)cc1,-25.4
6,O=C(N/N=C/c1ccc(Cl)c(Cl)c1)c1ccc2nc[nH]c2c1,14.6
7,Cc1ccc(NC(=O)CSc2nc(=O)n(CCN3CCOCC3)c3c2CCCC3)cc1,-27.5
8,CC(=O)Nc1cccc(-n2nnc(SCC(=O)c3ccccc3)n2)c1,2.38
9,O=C(CCC(=O)OCC(=O)c1cccc([N+](=O)[O-])c1)Nc1ccccc1Cl,7.66
10,COc1ccc(Cl)cc1NC(=O)CN(C)CC(=O)N1CC(=O)Nc2ccccc21,9.01
11,CCOc1ccc(CN2CCNC(=O)C2CC(=O)NCCc2ccccn2)cc1 (stereo not drawn),-0.32
12,Cl.NCCCCCc1nnc(SCc2ccccc2Cl)o1,-43.5
13,CCOc1ccc(C(=O)COC(=O)c2ccc(-n3cnnn3)cc2)cc1,29
14,C#Cc1ccc([C@@H]2C=C(C(=O)NCc3ccccc3)O[C@H](OCCCCO)C2)cc1,-19.6
15,CC1(C)CC(=O)c2cc(NC(=O)c3ccc(F)cc3)c(=O)oc2C1,3.59
16,CCC(C)NC(=O)c1ccccc1NC(=O)c1ccc(CSc2ccccc2)cc1 (stereo not drawn),11.1
17,COc1cc(OC)cc(C(=O)Nc2cccc(NC(=O)c3cc(OC)cc(OC)c3)n2)c1,11.8
18,O=C(NCc1ccco1)c1ccc2c(=O)n(CCC3=CCCCC3)c(=O)[nH]c2c1,23.3
19,OCC[C@H]1C[C@@H](O)[C@H](O)[C@@]2(CCCc3ccccc3O2)O1,13
20,Cc1ccc(-n2c(O)c(C=Nc3ccc(S(=O)(=O)N(C)C)cc3)c(=O)[nH]c2=O)cc1,9.9
21,COc1ccc(C(=O)NCCc2nnc3ccc(SCC(=O)NCc4ccc(F)cc4)nn23)cc1,12.6
